Our source for the IC50 values is patent US20260022143A1, “Cyclic Peptide Inhibitors of IL-23” (JANSSEN PHARMACEUTICA NV, priority 2022, published 2026).

In the assay the target is T1, IL-23R (Homo sapiens, UniProt Q5VWK5).
T1 construct: host or cells: HEK293
T1 sequence (Q5VWK5 24-629): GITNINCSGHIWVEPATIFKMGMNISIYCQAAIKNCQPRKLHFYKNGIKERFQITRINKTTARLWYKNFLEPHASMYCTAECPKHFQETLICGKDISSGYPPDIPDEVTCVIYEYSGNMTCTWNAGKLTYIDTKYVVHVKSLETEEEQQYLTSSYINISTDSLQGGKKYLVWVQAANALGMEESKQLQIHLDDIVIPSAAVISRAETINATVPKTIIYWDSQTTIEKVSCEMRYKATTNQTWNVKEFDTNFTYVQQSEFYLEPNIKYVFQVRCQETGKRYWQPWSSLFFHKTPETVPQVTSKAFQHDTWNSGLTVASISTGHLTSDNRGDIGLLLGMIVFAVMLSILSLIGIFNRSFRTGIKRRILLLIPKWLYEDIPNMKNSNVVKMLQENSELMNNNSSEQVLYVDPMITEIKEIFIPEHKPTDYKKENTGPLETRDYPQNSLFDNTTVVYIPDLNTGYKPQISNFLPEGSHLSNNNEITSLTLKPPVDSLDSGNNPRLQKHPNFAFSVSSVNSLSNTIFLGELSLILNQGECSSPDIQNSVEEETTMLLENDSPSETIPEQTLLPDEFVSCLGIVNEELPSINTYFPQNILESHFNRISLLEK
The experiment in a line: IL23R Reporter Assay. It is filed as cell-based. The settings on record: IL23R Reporter Assay (micromolar), HEK293 cells containing IL-23R, IL-12RP1 and STAT-inducible firefly luciferase reporter; 10 ng/mL IL-23 (EC90); 5 h at 37° C.
Consider `CC(=O)NCCCC[C@@H]1NC(=O)[C@H](Cc2c[nH]c3c(C)cccc23)NC(=O)[C@H]([C@@H](C)O)NC(=O)[C@H](CC(N)=O)NC(=O)[C@@H](NC(C)=O)C(C)(C)SSC(C)(C)[C@@H](C(=O)N[C@@H](Cc2ccc(OCCN)cc2)C(=O)N[C@@H](Cc2ccc3ccccc3c2)C(=O)N[C@@](C)(CCCCN)C(=O)N[C@@H](CCCCNC(C)=O)C(=O)N[C@@H](CC(N)=O)C(=O)N[C@@H](Cc2cccnc2)C(=O)N(C)[C@H](Cc2ccc(O)cc2)C(N)=O)NC1=O` [compound 30, MeCO-Pen(3)-N-T-7MeW-K(Ac)-Pen(3)-AEF-2Nal-aMeK-K(ac)-N-3Pya-NMeDTyr-CONH2], for which the 50% inhibitory concentration (IC50) stood at 3.5 nM. In turn, `CC(=O)NCCCC[C@@H]1NC(=O)[C@H](Cc2c[nH]c3c(C)cccc23)NC(=O)[C@H]([C@@H](C)O)NC(=O)[C@H](CC(N)=O)NC(=O)[C@@H](NC(C)=O)C(C)(C)SSC(C)(C)[C@@H](C(=O)N[C@@H](Cc2ccc(OCCN)cc2)C(=O)N[C@@H](Cc2ccc3ccccc3c2)C(=O)N[C@@](C)(CCCCN)C(=O)N[C@@H](CCCCNC(C)=O)C(=O)N[C@@H](CC(N)=O)C(=O)N[C@H](CO)C(=O)N(C)[C@H](Cc2ccc(O)cc2)C(N)=O)NC1=O` [compound 19, MeCO-Pen(3)-N-T-7MeW-K(Ac)-Pen(3)-AEF-2Nal-aMeK-K(Ac)-N-s-NMeDTyr-CONH2] came in with a half-inhibitory concentration (IC50) of 110 nM. In the case of `CC(=O)NCCCC[C@@H]1NC(=O)[C@H](Cc2c[nH]c3c(C)cccc23)NC(=O)[C@H]([C@@H](C)O)NC(=O)[C@H](CC(N)=O)NC(=O)[C@@H](NC(C)=O)C(C)(C)SSC(C)(C)[C@@H](C(=O)N[C@@H](Cc2ccc(OCCN)cc2)C(=O)N[C@@H](Cc2ccc3ccccc3c2)C(=O)N[C@@](C)(CCCCN)C(=O)N[C@@H](CCCCNC(C)=O)C(=O)N[C@@H](CC(N)=O)C(=O)N[C@@H](Cc2ccccc2)C(=O)N(C)[C@H](Cc2ccc(O)cc2)C(N)=O)NC1=O` [compound 7, MeCO-Pen(3)-N-T-7MeW-K(Ac)-Pen(3)-AEF-2Nal-aMeK-K(Ac)-N-F-NMeDTyr-CONH2], the IC50 is 510 nM.

With `CC(=O)NCCCC[C@@H]1NC(=O)[C@H](Cc2c[nH]c3c(C)cccc23)NC(=O)[C@H]([C@@H](C)O)NC(=O)[C@H](CC(N)=O)NC(=O)[C@@H](NC(=O)[C@@H](CCCNC(=N)N)NC(C)=O)C(C)(C)SSC(C)(C)[C@@H](C(=O)N[C@@H](Cc2ccc(OCCN)cc2)C(=O)N[C@@H](Cc2ccc3ccccc3c2)C(=O)N[C@@](C)(CCCCN)C(=O)N[C@@H](CCC(=O)O)C(=O)N[C@@H](CC(N)=O)C(=O)N[C@@H](Cc2c[nH]cn2)C(=O)N(C)[C@H](Cc2ccc(O)cc2)C(N)=O)NC1=O` [compound 9, MeCO-r-Pen(3)-N-T-7MeW-K(Ac)-Pen(3)-AEF-2Nal-aMeK-E-N-H-NMeDTyr-CONH2], it took 53 nM to reach half-maximal inhibition (IC50).

`CC(=O)NCCCC[C@@H]1NC(=O)[C@H](Cc2c[nH]c3c(C)cccc23)NC(=O)[C@H]([C@@H](C)O)NC(=O)[C@H](CC(N)=O)NC(=O)[C@@H](NC(C)=O)C(C)(C)SSC(C)(C)[C@@H](C(=O)N[C@@H](Cc2ccc(OCCN)cc2)C(=O)N[C@@H](Cc2ccc3ccccc3c2)C(=O)N[C@@](C)(CCCCN)C(=O)N[C@@H](CCCCNC(C)=O)C(=O)N[C@@H](CC(N)=O)C(=O)N[C@H](Cc2c[nH]cn2)C(=O)N(C)[C@H](Cc2ccc(O)cc2)C(N)=O)NC1=O` [compound 26, MeCO-Pen(3)-N-T-7MeW-K(Ac)-Pen(3)-AEF-2Nal-aMeK-K(Ac)-N-h-NMeDTyr-CONH2] came in with an IC50 of 110 nM. As to `CC(=O)NCCCC[C@H](NC(=O)[C@](C)(CCCCN)NC(=O)[C@H](Cc1ccc2ccccc2c1)NC(=O)[C@H](Cc1ccc(OCCN)cc1)NC(=O)[C@H]1NC(=O)[C@H](Cc2ccc(O)cc2)NC(=O)[C@H](Cc2c[nH]c3c(C)cccc23)NC(=O)[C@H]([C@@H](C)O)NC(=O)[C@H](CC(N)=O)NC(=O)[C@@H](NC(C)=O)C(C)(C)SSC1(C)C)C(=O)N[C@@H](CC(N)=O)C(=O)N[C@H](CCCCN)C(=O)N(C)[C@H](Cc1ccc(O)cc1)C(N)=O` [compound 21, MeCO-Pen(3)-N-T-7MeW-Y-Pen(3)-AEF-2Nal-aMeK-K(Ac)-N-k-NMeDTyr-CONH2], the IC50 stood at 130 nM.
